This is one part of the list. The main result of the screen is listed elsewhere. These columns were measured beside it and carry no call.
Experiments:
Assay in all cases: Primary Screen for Target Class Profiling of Small Molecule Inhibitors of Methyltransferases
[1] = molecular target: Glycine N-methyltransferase (Homo sapiens) (UniProt Q14749); settings: purified enzyme, MTase-Glo SAH luminescence; measured here: GNMT inhibition; at 40 µM; stronger effect = lower value
Method in brief: (§1)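 Each enzyme was reacted with SAM and its substrate, with compounds tested once at 40 uM; SAH formed was read by MTase-Glo luminescence.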

[2] = molecular target: Guanidinoacetate N-methyltransferase (Homo sapiens) (UniProt Q14353); settings: purified enzyme, MTase-Glo SAH luminescence; measured here: GAMT inhibition; at 40 µM; stronger effect = lower value
Method in brief: as §1

[3] = molecular target: Histamine N-methyltransferase (Homo sapiens) (UniProt P50135); settings: purified enzyme, MTase-Glo SAH luminescence; measured here: HNMT inhibition; at 40 µM; stronger effect = lower value
Method in brief: as §1

[4] = molecular target: Nicotinamide N-methyltransferase (Homo sapiens) (UniProt P40261); settings: purified enzyme, MTase-Glo SAH luminescence; measured here: NNMT inhibition; at 40 µM; stronger effect = lower value
Method in brief: as §1

[5] = molecular target: Phenylethanolamine N-methyltransferase (Homo sapiens) (UniProt P11086); settings: purified enzyme, MTase-Glo SAH luminescence; measured here: PNMT inhibition; at 40 µM; stronger effect = lower value
Method in brief: as §1
% is scaled to controls: 0 for no effect and ±100 for the full control effect.

Row | Compound | activity change, negative = inhibition [1] [%] | activity change, negative = inhibition [2] [%] | activity change, negative = inhibition [3] [%] | activity change, negative = inhibition [4] [%] | activity change, negative = inhibition [5] [%]
1 | COc1ccc(CNC(=O)c2cc3n(n2)CC(C)(C(=O)NC2CCCC2)N(C)C3=O)cc1OC (stereo not drawn) | -5.42 | 0 | 3.98 | -4.67 | -5.65
2 | CC1CCCC(NC(=O)C2(C)Cn3c(cc4occc43)C(=O)N2CCc2ccc(Cl)cc2)C1C (stereo not drawn) | -9.36 | 3.3 | -7.57 | -4.55 | -7.5
3 | Cc1ccccc1CNC(=O)C1(C)Cc2ccccc2C(=O)N1Cc1cccc(C(F)(F)F)c1 (stereo not drawn) | 13.4 | 3.58 | 12.9 | 4.34 | 7.98
4 | NS(=O)(=O)c1cccc(N=Cc2c(O)[nH]c3ccccc23)c1 | – | -8.09 | – | -20.8 | -2.06
5 | CCc1cccc(NS(=O)(=O)c2ccc3[nH]c4c(c3c2)CCCC4)c1 | 4.49 | 2.99 | 3.19 | -8.09 | 2.24
6 | COc1cc(Oc2ccnc3cc(OC)c(OC)cc23)ccc1NC(=O)NC(C)c1nccs1 (stereo not drawn) | -10.6 | -9.12 | -27.5 | -42.1 | -1.3
7 | CC1(C(=O)NC2CCCCC2)Cn2c(ccc2-c2ccco2)C(=O)N1CCc1ccco1 (stereo not drawn) | -0.321 | -0.985 | 6.86 | -1.13 | 4.88
8 | CCNC(=O)[C@@H]1CCCN1C(=O)[C@H](CCCN=C(N)N)NC(=O)[C@H](CC(C)C)NC(=O)[C@@H](C)NC(=O)[C@H](Cc1ccc(O)cc1)NC(=O)[C@H](CO)NC(=O)[C@H](Cc1c[nH]c2ccccc12)NC(=O)[C@H](Cc1cnc[nH]1)NC(=O)[C@@H]1CCC(=O)N1 | -0.322 | -3.51 | 7.3 | -8.53 | 2.42
9 | COCCNC(=O)NC[C@H]1O[C@@H]2C[C@@H](CC(=O)N3CCC(F)(F)C3)O[C@@H]2[C@@H]1O | -0.04 | 1.41 | 0.218 | 1.04 | 1.94
10 | O=C(O)/C=C/c1cnc[nH]1 | -0.036 | 4.87 | -0.021 | -3.7 | 3.68
11 | Cc1cc(O)c(-c2ccc([C@@H](C)CN(C)C)cc2)c2c1[nH]c(=O)c1sccc12 | -45.1 | -28.8 | -93.9 | -82.5 | -23.5
12 | COc1ccc(-c2nnc(C[C@@H]3C[C@@H](C(C)C)[C@H](CNCc4ccncc4)C=C3C)o2)cc1 | -10.7 | -6.08 | -13.1 | -24.2 | -10.3
13 | Cn1c(=O)c2ccnn2c2ccc(C(=O)NCC3CCN(Cc4ccccc4F)CC3)cc21 | -12.4 | -8.03 | -21.6 | -57.9 | -4.56
14 | CCCn1c(=O)c2ccc(C(=O)NC3CCCC3)cc2n2c(=O)n(CC(=O)Nc3ccc(F)cc3)nc12 | 3.51 | 0.47 | 6.54 | 6.41 | 5.87
15 | O=C(C1CCCC1)N1CCC2(CC1)CC(c1ccccc1)=NO2 | -6.6 | -5.61 | -0.722 | -9.6 | 5.1
16 | CCOCCCNC(=O)C1c2c(n(C)c3ccccc23)SCC(=O)N1Cc1ccc(OC)cc1 (stereo not drawn) | 10.5 | 1.15 | 4.66 | 3.02 | 6.15
17 | O=C1CC[C@H](C(=O)N2CCCCC2)N1 | 6.06 | 5.76 | 9.48 | -3.81 | 5.83
18 | NCc1c[nH]c(=S)n1C1CCc2c(F)cc(F)cc2C1 (stereo not drawn) | 3.48 | 2.59 | -1.7 | -18.8 | -7.66
19 | CCCN1C(=O)c2c(C(=O)NCCc3ccccc3)ncn2CC1(C)C(=O)NCc1ccc(C)cc1 (stereo not drawn) | -1.44 | 0 | 5.85 | 2.13 | 4.53

Row | Compound | activity change, negative = inhibition [1] [%] | activity change, negative = inhibition [2] [%] | activity change, negative = inhibition [3] [%] | activity change, negative = inhibition [4] [%] | activity change, negative = inhibition [5] [%]
20 | CC(C)CCn1c(=O)c2ccccc2n2c(=O)n(Cc3c(F)cccc3Cl)nc12 | 1.59 | 0 | 8.39 | -0.223 | 4.11
21 | O=C(CCn1ccc2cc(S(=O)(=O)N3CCCC3)ccc21)NCCc1cccs1 | 2.31 | 0.002 | 3.26 | 2.23 | -0.389
22 | CCC(=O)N1CCc2cc(Br)c(S(=O)(=O)NCCN3CCN(c4ccccc4F)CC3)cc21 | -11.8 | 2.29 | -6.74 | -11.6 | -11.5
23 | Cc1cccc2c1NC(=O)C2(c1ccc(O)cc1)c1ccc(O)cc1 | -14.3 | -16.5 | -10.2 | -23 | -18.7
24 | CCOC(=O)N1CCC(N2CCC[C@@H](NC(=O)c3ccccc3C)C2)CC1 | 4.84 | 0.647 | 10.6 | -10.7 | -1.02
25 | CCC(=O)N1C[C@@H]2CCCN3CCC[C@@H]([C@H]23)[C@H]1CCCC(=O)NC | -3.96 | -2.51 | -5.05 | -5.96 | -15.6
26 | COc1cncc(Nc2ncc(-c3ccccc3OC)c3c2OCC3)c1 | -52.1 | -35.2 | -20.1 | -33.1 | -51.9
27 | Cc1cnc(C2CC2)n1C1CCCN(C(=O)c2ccoc2)C1 (stereo not drawn) | -7.12 | -9.13 | -28.1 | -13 | -2.01
28 | C[C@@H]1O[C@@H](O[C@@H]2\C=C/C=C\C=C/C=C\C[C@H](C)OC(=O)/C=C\[C@H]3O[C@@H]3C[C@H](O)C[C@]3(O)C[C@@H](O)[C@@H](C(=O)O)[C@H](C2)O3)[C@H](O)[C@H](N)[C@@H]1O | -8.32 | -25.5 | 5.77 | -25.5 | -4.54
29 | C[C@]1(C2CCCC2)Cc2cc(OCC(=O)O)c(Cl)c(Cl)c2C1=O | -0.936 | 0.447 | 13.3 | -54.3 | 5.31
30 | CC(=O)Nc1ccc2c(c1)S(=O)(=O)N=C(CC(C)C)N2c1ccccc1 | -9 | -9.27 | -12.9 | -24.4 | -10.2
31 | CC(C)CCNC(=O)C1(C)Cn2c(c(-n3cccc3)c3ccccc32)C(=O)N1Cc1cccs1 (stereo not drawn) | 2.73 | 4.18 | -3.06 | 0.036 | -2.35
32 | COc1cccc(CNC(=O)c2cc3n(n2)CC(C)(C(=O)NC2CCCCCC2)N(C)C3=O)c1 (stereo not drawn) | 2.06 | 1.08 | 2.58 | 5.11 | -0.612
33 | COC(=O)Nc1cc(C2CC2)nn1C | -3.34 | -7.75 | -0.92 | -10.6 | -6.62
34 | Cn1c(=O)c2ccc(C(=O)NC3CCCC3)cc2n2c(SCC(=O)Nc3cc(F)ccc3F)nnc12 | -5.01 | 3.09 | -0.276 | 1.37 | 1.63
35 | CC1=C2C[C@@]3(C)C(CCC[C@@H]3C)C(O)C2(O)OC1=O (stereo partly drawn) | -3.76 | -0.093 | 6.08 | -16.6 | -10.4
36 | Cc1ccc(C)c(S(=O)(=O)c2nnn3c2nc(NCCCOC(C)C)c2ccccc23)c1 | -3.11 | 0 | 3.85 | -5.35 | -3.67
37 | S=C(NCc1ccc2c(c1)OCO2)N1CCN(c2ncnc3c2oc2ccccc23)CC1 | -8.08 | -7.39 | 3.69 | -27.9 | -9.05

From PubChem BioAssay AID1745853 (National Center for Advancing Translational Sciences (NCATS), 2022)
